# Measurements reported in PubChem BioAssay AID686978 (National Center for Advancing Translational Sciences (NCATS), 2013).
# Hit rate of the full screen: of about 420,000 compounds, about 64,000 (15%) were called active. The inconclusive results got no clear call from the source; some entries with a clear call stand among them for comparison. Calls come from the whole dose curve; as a rule, active = well fitted inhibition curve with a large enough effect; inconclusive = small, poorly fitted or top-dose-only effect; inactive = flat fitted curve, though single readings scatter. No potency is given beside an inconclusive call; the fits are too rough.
# Experiment: qHTS for Inhibitors of human tyrosyl-DNA phosphodiesterase 1 (TDP1): qHTS in cells in absence of CPT; note: nearly all actives have a fitted effect of over 55% in size
# Details: DT40 Tdp1-/- hTDP1 cells, no CPT, ATP luminescence, 48 h; activity change, negative = growth inhibition: at 46.2 µM (top of the series) unless noted
# In short: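 No-CPT arm: Tdp1-/-;hTDP1 DT40 cells (400/well) plus compounds, incubated ≥48 hr at 37 °C. Readout CellTiter-Glo luminescence.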
# % is set by controls: 0 for no effect and ±100 for the full control effect; potency is the fitted concentration of half-maximal effect; tags give direction and shape of the fitted curve.
Compound,Potency,"activity change, negative = growth inhibition"
CCc1ccc2c(-c3cccc(Cl)c3)nc(=O)n(CC)c2n1,"inconclusive [inhibitor, partial curve, poor fit]",–
O=C(Cc1cccc2ccccc12)NN=Cc1ccc2c(c1)CCC2,active: 20.6 µM,–
Clc1cccc(N2CCN(c3nc4ccccc4n4cnnc34)CC2)c1,"inconclusive [inhibitor, single point]",–
CCc1ccccc1NC(=O)CNC(=O)c1cc(C2CC2)nc2c1cnn2C(C)C,"inconclusive [inhibitor, single point]",–
CC(CC(=O)O)CC(=O)Nc1nncs1 (configuration not stated),inactive,–
COc1ccc(-n2c(C)nc(N)c2C(=O)c2ccccc2)cc1,inactive,–
C=CCc1ccccc1OCCSc1nc(-c2ccc(C(C)(C)C)cc2)nc2cc(=O)[nH]n12,"inconclusive [inhibitor, single point]",–
Oc1ccc(-c2nc3ccccn3c2NCc2ccco2)cc1,"inconclusive [inhibitor, partial curve]",–
COC(=O)c1sccc1-n1cc2c(c1-c1ccccc1)c(=O)n(C)c(=O)n2C,active: 20.6 µM,–
COc1ccc(-c2nc3ccccc3c(=O)n2NC(=S)N(C)C)cc1,active: 11.6 µM,–
CCCNC(=O)C1(C)CCN(C(=O)c2cccnc2Oc2ccccc2)C1 (configuration not stated),inactive,–
O=C(CCc1ccccc1)c1nnc(-c2ccccc2)o1,"inconclusive [inhibitor, full curve, poor fit]",–
CC(=O)N(C(C)=O)N1C(=O)/C(=C/c2ccc(Cl)cc2)SC1=S,"inconclusive [inhibitor, single point]",–
CCN(c1cc(C)cc(C)c1)S(=O)(=O)c1nnc(NC(=O)C2CCCCC2)s1,active: 11.6 µM,–
CN(C)c1ncc2nc(-c3cccs3)c(=O)n(-c3ccccc3)c2n1,inactive,–
Cc1cc(C)cc(NC(=O)CCC(=O)N2Cc3ccccc3Oc3ncccc32)c1,"inconclusive [inhibitor, single point]",–
Cc1ccc(NC(=O)CSC(C)C(=O)NCCc2ccccn2)cc1 (configuration not stated),inactive,–
c1ccc(-c2nc(-c3ccco3)n3ccccc23)cc1,"inconclusive [inhibitor, single point]",–
CCCC(C(=O)NC1CCCC1)N(C(=O)Cn1nnc(-c2ccc(C)o2)n1)c1ccccc1OC (configuration not stated),–,inconclusive: -30.3% [inhibitor]
CC(=O)N1CC2(CC(c3ccccc3F)=NO2)CN1c1ccc(Cl)cc1 (configuration not stated),"inconclusive [inhibitor, partial curve]",–
CCOC(=O)C1CCCN(CC(O)COCc2ccccc2OC)C1 (configuration not stated),inactive,–
CCCOc1ccccc1OCC(=O)Nc1cc(Cl)ccc1-n1cncn1,"inconclusive [inhibitor, single point]",–
Cc1cc(-c2n[nH]c(=S)n2/N=C/C(Br)=C/c2ccccc2)n[nH]1,active: 2.06 µM,–
N#CCCN(Cc1cccnc1)S(=O)(=O)c1ccc(S(=O)(=O)NC2CCCCC2)cc1,"inconclusive [inhibitor, partial curve]",–

Compound,Potency,"activity change, negative = growth inhibition"
O=C(Nc1nc(-c2cccs2)cs1)C1CC(=O)N(c2ccc3c(c2)OCCO3)C1 (configuration not stated),"inconclusive [inhibitor, single point]",–
COc1ccc(OC)c(/C=N/Nc2cc(C)nc(N3CCOCC3)n2)c1,active: 16.4 µM,–
CCC(C)(C)n1nnnc1C(c1ccc(N(C)C)cc1)N1CCN(C2CCCCC2)CC1 (configuration not stated),"inconclusive [inhibitor, single point]",–
O=S(=O)(c1ccc2ccccc2c1)N(CC(O)COCc1ccco1)c1ccccc1 (configuration not stated),"inconclusive [inhibitor, partial curve]",–
Cc1cc(C)c(NC(=O)C[C@H](CC(=O)O)c2cccc3ccccc23)c(C(=O)N2CCC3(CCCC3)CC2)c1,"inconclusive [inhibitor, single point]",–
Cc1cccc(N2CCN(CC(=O)N(C3CCCC3)C3CCS(=O)(=O)C3)CC2)c1C (configuration not stated),"inconclusive [inhibitor, single point]",–
COc1ccc(CC(=O)Nc2cccc(-c3csc(C)n3)c2)cc1,"inconclusive [inhibitor, single point]",–
Cc1ccc(CNC(=O)CN2CCN(c3ccc(F)cc3)CC2)cc1,"inconclusive [inhibitor, single point]",–
CCSc1nc2c(c(=O)[nH]c(=O)n2C)n1CC(O)COc1ccccc1C (configuration not stated),"inconclusive [inhibitor, partial curve]",–
COc1ccccc1C=NNC(=O)c1ccccc1OCCOc1ccccc1,"inconclusive [inhibitor, single point]",–
CNc1ccc(C=O)cc1Cl,inactive,–
Cc1ccc(CCNC(=O)c2cc3sccc3n2Cc2ccc(C)cc2)cc1,"inconclusive [inhibitor, partial curve]",–
Cc1ccc(NC(=O)[C@H](NC(=O)[C@@H]2Cc3ccccc3CN2)c2ccccc2)cc1C,"inconclusive [inhibitor, partial curve, poor fit]",–
Clc1ccc2nc(CSc3ccccc3)cn2c1,"inconclusive [inhibitor, single point]",–
COc1ccc(C2=NNC(c3ccco3)=Nc3ccc(F)cc32)cc1,"inconclusive [inhibitor, single point]",–
Cc1c(Cl)cccc1-c1ccc(CNc2ccc3[nH]c(=O)[nH]c3c2)o1,"inconclusive [inhibitor, single point]",–
O=C1Nc2ccc(S(=O)(=O)NCCCO)c3cccc1c23,inactive,–
O=C(NNc1c(Cl)cccc1Cl)c1ccno1,inactive,–
CC(OC(=O)c1cccc(-n2cnnn2)c1)C(=O)Nc1cccc(Cl)c1 (configuration not stated),"inconclusive [inhibitor, single point]",–
COc1ccc(NS(=O)(=O)c2cccc3cccnc23)cc1Cl,active: 20.6 µM,–
CC1CCN(S(=O)(=O)c2ccc3c(c2)oc(=O)n3CC(=O)NCc2ccc(F)cc2)CC1,active: 8.2 µM,–
COc1ccc(/C=C2\CCc3ccccc3C2=O)cc1O,active: 0.82 µM,–
COC(=O)c1sc(NC(=O)c2ccc(C)o2)nc1C,"inconclusive [inhibitor, single point]",–
COc1ccc(-c2csc(N(CCCN(C)C)C(=O)c3ccc(Br)cc3)n2)cc1,active: 20.6 µM,–

Compound,Potency,"activity change, negative = growth inhibition"
COC(=O)c1cc(S(=O)(=O)NCc2cccs2)c[nH]1,inactive,–
CCc1ccccc1NC(=O)c1nnn(-c2ccc(F)cc2)c1C,"inconclusive [inhibitor, partial curve]",–
CN(C)c1ccc(-c2noc(C3CCN(C(=O)Nc4ccc(Cl)cc4)CC3)n2)cc1,"inconclusive [inhibitor, single point]",–
O=C(Nc1nnc(-c2ccc(F)cc2)o1)c1cc(Cl)sc1Cl,active: 20.6 µM,–
Cc1c(Cl)cn2c(=O)cc(CN3CCN(c4ccccc4)CC3)nc2c1Cl,"inconclusive [inhibitor, single point]",–
COc1ccc(OCCSc2nc3ccccc3c(=O)[nH]2)cc1,"inconclusive [inhibitor, partial curve]",–
COCCCNC(=S)NNC(=S)Nc1ccc(F)cc1F,inactive,–
CC(=O)c1c(C(C)=O)c(C)n(-c2nc(-c3ccc(C)c(C)c3)c(C)s2)c1C,active: 23.1 µM,–
CNC(=O)c1cc(S(=O)(=O)N2CC(C)OC(C)C2)ccc1N1CCOCC1 (configuration not stated),"inconclusive [inhibitor, single point]",–
O=C(NC1CCCC1)c1cc(-c2ccc(Cl)c(Cl)c2)on1,"inconclusive [inhibitor, partial curve]",–
O=C(NC1CCCC1)C1c2ccccc2OCC(=O)N1Cc1ccccc1 (configuration not stated),"inconclusive [inhibitor, partial curve]",–
CCCCC(=O)NC(c1ccc(OC)c(OC)c1)c1ccc2cccnc2c1O (configuration not stated),active: 3.26 µM,–
COc1cccc(NC(=O)N(CCN(C)C)C(C)c2cccnc2)c1 (configuration not stated),inactive,–
CCCCC(=O)Nc1ccc(NCc2ccc(C)s2)cc1,active: 3.66 µM,–
CCCSc1ccc([C@H]2N[C@@](Cc3ccccc3)(C(=O)OC)[C@H]3C(=O)N(C)C(=O)[C@@H]23)cc1,"inconclusive [inhibitor, single point]",–
Fc1ccc(Cn2c(SCc3ccc(F)c(C(F)(F)F)c3)nnc2C(F)(F)F)cc1,"inconclusive [inhibitor, single point]",–
Cn1cccc1-c1nc2ccc(NC(=O)c3ccccc3)cc2[nH]1,"inconclusive [inhibitor, single point]",–
COc1ccccc1CNc1cc(-c2ccccc2C(F)(F)F)ncn1,active: 1.46 µM,–
COCC(=O)N1CCC2(CC1)CN(c1ccccn1)C2,–,inconclusive: -31.3% [inhibitor]
CCOC(=O)c1sc(NC(=O)CSc2nnnn2-c2ccc(C)cc2)c(C(=O)OCC)c1C,"inconclusive [inhibitor, single point]",–
O=C(Nc1ccc(Cl)cc1)C1CCCN(S(=O)(=O)c2ccc3[nH]c(=O)ccc3c2)C1 (configuration not stated),inactive,–
COC(=O)c1ccc(N2CCN(C(C)=O)CC2)c(NC(=O)COc2ccccc2C)c1,inactive,–
COc1c(C)cc(C(=O)C2CCCN(Cc3cccc4nccnc34)C2)cc1C (configuration not stated),active: 16.4 µM,–
CCNC(=O)C(=O)Nc1ccc(OC)c(Cl)c1,"inconclusive [inhibitor, single point]",–
